From the supplement of paper PMC9151546
Counter-ions that a name gives are not always drawn. Many values rest on one well or one pass, so single values are uncertain.

How the values were obtained:
CHO-K1 [1] = test: relative survival (nuclei to bead ratio vs DMSO control) (% of vehicle control); higher = more surviving cells
CHO-K1 [2] = test: micronucleus frequency (% of nucleated events); higher = more micronuclei (genotoxic)
CHO-K1 [3] = test: hypodiploid nuclei frequency (% of nucleated events); higher = more hypodiploid events (aneugenic)
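For hypodiploid nuclei frequency (% of nucleated events) in this document: hypodiploid nuclei gated on a flow cytometer with 488 nm excitation after SYTOX Green staining, cultures at 37 °C, positive controls vinblastine without S9 and cyclophosphamide with S9.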
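For micronucleus frequency (% of nucleated events) in this document: cells lysed with nuclei stained by SYTOX Green, then micronucleus-gated events counted against nucleated events by flow cytometry with 488 nm excitation.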
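For relative survival (nuclei to bead ratio vs DMSO control) in this document: Lysed-cell nuclei stained with SYTOX Green and counted against counting beads by flow cytometry at 488 nm excitation, with vinblastine (no S9) and cyclophosphamide (plus S9) as positive controls.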

O=C(c1ccc(OCCN2CCCCC2)cc1)c1c(-c2ccc(O)cc2)sc2cc(O)ccc12 [Raloxifene hydrochloride]
Settings	hypodiploid nuclei frequency, CHO-K1 [3] [%]	micronucleus frequency, CHO-K1 [2] [%]	relative survival, CHO-K1 [1]
concentration: 4.5 (µM), S9 metabolic activation: with S9, exposure time: 3-4 hours	0.16	1.06	124
concentration: 4.5 (µM), S9 metabolic activation: without S9, exposure time: 24 hours	0.5	1.64	128
concentration: 5.63 (µM), S9 metabolic activation: with S9, exposure time: 3-4 hours	0.24	1.28	115
concentration: 5.63 (µM), S9 metabolic activation: without S9, exposure time: 24 hours	0.54	1.36	106
concentration: 7.04 (µM), S9 metabolic activation: with S9, exposure time: 3-4 hours	0.18	1.46	116
concentration: 7.04 (µM), S9 metabolic activation: without S9, exposure time: 24 hours	0.58	1.98	118
concentration: 8.8 (µM), S9 metabolic activation: with S9, exposure time: 3-4 hours	0.22	1.74	110
concentration: 8.8 (µM), S9 metabolic activation: without S9, exposure time: 24 hours	0.6	1.98	97.9
concentration: 11 (µM), S9 metabolic activation: with S9, exposure time: 3-4 hours	0.2	1.38	95.4
concentration: 11 (µM), S9 metabolic activation: without S9, exposure time: 24 hours	0.64	2	106
concentration: 13.7 (µM), S9 metabolic activation: with S9, exposure time: 3-4 hours	0.32	1.26	98.7
concentration: 13.7 (µM), S9 metabolic activation: without S9, exposure time: 24 hours	0.8	1.94	102
concentration: 17.2 (µM), S9 metabolic activation: with S9, exposure time: 3-4 hours	0.22	1.14	79.8
concentration: 17.2 (µM), S9 metabolic activation: without S9, exposure time: 24 hours	0.72	1.74	102
concentration: 21.5 (µM), S9 metabolic activation: with S9, exposure time: 3-4 hours	0.18	1.04	90.1
concentration: 21.5 (µM), S9 metabolic activation: without S9, exposure time: 24 hours	0.74	2.18	91.9
concentration: 26.8 (µM), S9 metabolic activation: with S9, exposure time: 3-4 hours	0.24	1.3	141
concentration: 26.8 (µM), S9 metabolic activation: without S9, exposure time: 24 hours	5.4	2.08	75.4
concentration: 33.6 (µM), S9 metabolic activation: with S9, exposure time: 3-4 hours	0.38	1.08	104
concentration: 33.6 (µM), S9 metabolic activation: without S9, exposure time: 24 hours	2.64	2.58	112
concentration: 41.9 (µM), S9 metabolic activation: with S9, exposure time: 3-4 hours	0.3	1.64	112
concentration: 41.9 (µM), S9 metabolic activation: without S9, exposure time: 24 hours	5.94	3.76	87
concentration: 52.4 (µM), S9 metabolic activation: with S9, exposure time: 3-4 hours	0.3	1.4	91.2
concentration: 52.4 (µM), S9 metabolic activation: without S9, exposure time: 24 hours	11.7	5.58	60.5
concentration: 65.5 (µM), S9 metabolic activation: with S9, exposure time: 3-4 hours	0.4	1.42	69.4
concentration: 65.5 (µM), S9 metabolic activation: without S9, exposure time: 24 hours	5.91	7.81	40.6
concentration: 81.9 (µM), S9 metabolic activation: with S9, exposure time: 3-4 hours	0.28	2.16	50.1
concentration: 81.9 (µM), S9 metabolic activation: without S9, exposure time: 24 hours	–	–	37.3
concentration: 102 (µM), S9 metabolic activation: with S9, exposure time: 3-4 hours	0.22	2.87	43.6
concentration: 102 (µM), S9 metabolic activation: without S9, exposure time: 24 hours	–	–	35.4
concentration: 128 (µM), S9 metabolic activation: with S9, exposure time: 3-4 hours	0.3	5.2	42.9
concentration: 128 (µM), S9 metabolic activation: without S9, exposure time: 24 hours	–	–	5.8
concentration: 160 (µM), S9 metabolic activation: with S9, exposure time: 3-4 hours	–	–	10.1
concentration: 160 (µM), S9 metabolic activation: without S9, exposure time: 24 hours	–	–	0.01
concentration: 200 (µM), S9 metabolic activation: with S9, exposure time: 3-4 hours	–	–	1.08
concentration: 200 (µM), S9 metabolic activation: without S9, exposure time: 24 hours	–	–	0.35

CO[C@H]1/C=C/O[C@@]2(C)Oc3c(C)c(O)c4c(O)c(c(/C=N/N5CCN(C)CC5)c(O)c4c3C2=O)NC(=O)/C(C)=C\C=C\[C@H](C)[C@H](O)[C@@H](C)[C@@H](O)[C@@H](C)[C@H](OC(C)=O)[C@@H]1C [Rifampicin]
Settings	hypodiploid nuclei frequency, CHO-K1 [3] [%]	micronucleus frequency, CHO-K1 [2] [%]	relative survival, CHO-K1 [1]
concentration: 2.81 (µM), S9 metabolic activation: with S9, exposure time: 3-4 hours	0.34	1.6	124
concentration: 2.81 (µM), S9 metabolic activation: without S9, exposure time: 24 hours	0.42	1.88	117
concentration: 3.52 (µM), S9 metabolic activation: with S9, exposure time: 3-4 hours	0.48	3.4	117
concentration: 3.52 (µM), S9 metabolic activation: without S9, exposure time: 24 hours	0.52	2.14	110
concentration: 4.4 (µM), S9 metabolic activation: with S9, exposure time: 3-4 hours	0.32	1.9	121
concentration: 4.4 (µM), S9 metabolic activation: without S9, exposure time: 24 hours	0.56	2.36	117
concentration: 5.5 (µM), S9 metabolic activation: with S9, exposure time: 3-4 hours	0.2	1.6	96.7
concentration: 5.5 (µM), S9 metabolic activation: without S9, exposure time: 24 hours	0.56	2.08	120
concentration: 6.9 (µM), S9 metabolic activation: with S9, exposure time: 3-4 hours	0.2	1.92	124
concentration: 6.9 (µM), S9 metabolic activation: without S9, exposure time: 24 hours	0.58	2.34	125
concentration: 8.6 (µM), S9 metabolic activation: with S9, exposure time: 3-4 hours	0.34	2.16	113
concentration: 8.6 (µM), S9 metabolic activation: without S9, exposure time: 24 hours	0.36	2.54	103
concentration: 10.7 (µM), S9 metabolic activation: with S9, exposure time: 3-4 hours	0.18	1.44	134
concentration: 10.7 (µM), S9 metabolic activation: without S9, exposure time: 24 hours	0.32	1.86	124
concentration: 13.4 (µM), S9 metabolic activation: with S9, exposure time: 3-4 hours	0.3	1.42	114
concentration: 13.4 (µM), S9 metabolic activation: without S9, exposure time: 24 hours	0.56	1.68	97.2
concentration: 16.8 (µM), S9 metabolic activation: with S9, exposure time: 3-4 hours	0.26	2	98.7
concentration: 16.8 (µM), S9 metabolic activation: without S9, exposure time: 24 hours	0.5	1.34	104
concentration: 21 (µM), S9 metabolic activation: with S9, exposure time: 3-4 hours	0.14	1.8	93.3
concentration: 21 (µM), S9 metabolic activation: without S9, exposure time: 24 hours	0.62	2.16	92.9
concentration: 26.2 (µM), S9 metabolic activation: with S9, exposure time: 3-4 hours	0.22	1.72	107
concentration: 26.2 (µM), S9 metabolic activation: without S9, exposure time: 24 hours	0.68	2.08	90.4
concentration: 32.8 (µM), S9 metabolic activation: with S9, exposure time: 3-4 hours	0.34	2.3	98.7
concentration: 32.8 (µM), S9 metabolic activation: without S9, exposure time: 24 hours	0.62	1.18	96
concentration: 41 (µM), S9 metabolic activation: with S9, exposure time: 3-4 hours	0.32	2.5	92.9
concentration: 41 (µM), S9 metabolic activation: without S9, exposure time: 24 hours	0.44	1.74	78.2
concentration: 51.2 (µM), S9 metabolic activation: with S9, exposure time: 3-4 hours	0.18	1.68	68
concentration: 51.2 (µM), S9 metabolic activation: without S9, exposure time: 24 hours	0.76	2.22	88.7
concentration: 64 (µM), S9 metabolic activation: with S9, exposure time: 3-4 hours	0.22	3	117
concentration: 64 (µM), S9 metabolic activation: without S9, exposure time: 24 hours	0.84	4.06	76.2
concentration: 80 (µM), S9 metabolic activation: with S9, exposure time: 3-4 hours	0.26	2.66	87.5
concentration: 80 (µM), S9 metabolic activation: without S9, exposure time: 24 hours	0.88	2.96	76.7
concentration: 100 (µM), S9 metabolic activation: with S9, exposure time: 3-4 hours	0.3	1.92	90.5
concentration: 100 (µM), S9 metabolic activation: without S9, exposure time: 24 hours	1.18	3.24	72.4
concentration: 125 (µM), S9 metabolic activation: with S9, exposure time: 3-4 hours	0.1	1.6	92.6
concentration: 125 (µM), S9 metabolic activation: without S9, exposure time: 24 hours	1.16	3.52	68.5

O=C(O)c1cc(/N=N/c2ccc(S(=O)(=O)Nc3ccccn3)cc2)ccc1O [Sulfasalazine]
Settings	hypodiploid nuclei frequency, CHO-K1 [3] [%]	micronucleus frequency, CHO-K1 [2] [%]	relative survival, CHO-K1 [1]
concentration: 4.5 (µM), S9 metabolic activation: with S9, exposure time: 3-4 hours	0.26	0.92	130
concentration: 4.5 (µM), S9 metabolic activation: without S9, exposure time: 24 hours	0.66	1.34	109
concentration: 5.63 (µM), S9 metabolic activation: with S9, exposure time: 3-4 hours	0.2	1	104
concentration: 5.63 (µM), S9 metabolic activation: without S9, exposure time: 24 hours	0.46	1.24	93.6
concentration: 7.04 (µM), S9 metabolic activation: with S9, exposure time: 3-4 hours	0.28	1.18	92.7
concentration: 7.04 (µM), S9 metabolic activation: without S9, exposure time: 24 hours	0.46	1.08	113
concentration: 8.8 (µM), S9 metabolic activation: with S9, exposure time: 3-4 hours	0.26	0.88	112
concentration: 8.8 (µM), S9 metabolic activation: without S9, exposure time: 24 hours	0.72	1.12	102
concentration: 11 (µM), S9 metabolic activation: with S9, exposure time: 3-4 hours	0.22	1.48	89.3
concentration: 11 (µM), S9 metabolic activation: without S9, exposure time: 24 hours	0.66	1.96	85.6
concentration: 13.7 (µM), S9 metabolic activation: with S9, exposure time: 3-4 hours	0.2	1.14	93.8
concentration: 13.7 (µM), S9 metabolic activation: without S9, exposure time: 24 hours	0.58	1.38	86.6
concentration: 17.2 (µM), S9 metabolic activation: with S9, exposure time: 3-4 hours	0.12	1.28	117
concentration: 17.2 (µM), S9 metabolic activation: without S9, exposure time: 24 hours	0.52	1.5	91.5
concentration: 21.5 (µM), S9 metabolic activation: with S9, exposure time: 3-4 hours	0.2	1.34	98.2
concentration: 21.5 (µM), S9 metabolic activation: without S9, exposure time: 24 hours	0.46	1.7	129
concentration: 26.8 (µM), S9 metabolic activation: with S9, exposure time: 3-4 hours	0.16	1.1	123
concentration: 26.8 (µM), S9 metabolic activation: without S9, exposure time: 24 hours	0.66	1.16	100
concentration: 33.6 (µM), S9 metabolic activation: with S9, exposure time: 3-4 hours	0.24	1.42	135
concentration: 33.6 (µM), S9 metabolic activation: without S9, exposure time: 24 hours	0.5	1.42	86.6
concentration: 41.9 (µM), S9 metabolic activation: with S9, exposure time: 3-4 hours	0.2	1.54	128
concentration: 41.9 (µM), S9 metabolic activation: without S9, exposure time: 24 hours	0.66	1.54	89.9
concentration: 52.4 (µM), S9 metabolic activation: with S9, exposure time: 3-4 hours	0.22	1.12	121
concentration: 52.4 (µM), S9 metabolic activation: without S9, exposure time: 24 hours	0.54	1.36	101
concentration: 65.5 (µM), S9 metabolic activation: with S9, exposure time: 3-4 hours	0.24	1.42	112
concentration: 65.5 (µM), S9 metabolic activation: without S9, exposure time: 24 hours	0.62	1.6	103
concentration: 81.9 (µM), S9 metabolic activation: with S9, exposure time: 3-4 hours	0.16	1.12	121
concentration: 81.9 (µM), S9 metabolic activation: without S9, exposure time: 24 hours	0.6	1.64	84.3
concentration: 102 (µM), S9 metabolic activation: with S9, exposure time: 3-4 hours	0.22	1.62	121
concentration: 102 (µM), S9 metabolic activation: without S9, exposure time: 24 hours	0.6	1.66	94.7
concentration: 128 (µM), S9 metabolic activation: with S9, exposure time: 3-4 hours	0.2	1.5	90.5
concentration: 128 (µM), S9 metabolic activation: without S9, exposure time: 24 hours	0.62	1.44	87.5
concentration: 160 (µM), S9 metabolic activation: with S9, exposure time: 3-4 hours	0.16	1.26	68.5
concentration: 160 (µM), S9 metabolic activation: without S9, exposure time: 24 hours	0.98	1.96	87
concentration: 200 (µM), S9 metabolic activation: with S9, exposure time: 3-4 hours	0.1	1.12	95.6
concentration: 200 (µM), S9 metabolic activation: without S9, exposure time: 24 hours	1.24	1.68	89
